# Measurements taken from PubChem BioAssay AID624170 (National Center for Advancing Translational Sciences (NCATS), 2012).
# Hit rate of the full screen: of about 410,000 compounds, about 850 (0.21%) were called active. This list was built around the results that the source calls inconclusive (neither active nor inactive); the mix of calls is not that of the screen. Calls follow the shape of the dose curve; as a rule, active = well fitted inhibition curve with a large enough effect; inconclusive = small, poorly fitted or top-dose-only effect, or another doubt; inactive = no such curve, though single readings can be large or run the other way. Potencies of inconclusive entries are left out as doubtful fits.
# Target: Glutaminase kidney isoform, mitochondrial (Homo sapiens) (UniProt O94925)
# Experiment: qHTS for Inhibitors of Glutaminase (GLS)
# Conditions: GLS enzymatic activity, qHTS titration; series mostly up to 45.5 µM; activity change, negative = inhibition: at the top concentration
# In short: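 Coupled fluorescence readout: glutamate oxidase/HRP/Amplex Red detect glutamate formed by hKGA from L-glutamine (1 mM solution added). Buffer 45 mM KH2PO4 pH 8.2, 0.02% Tween-20; reads at t0 and 30 min RT.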
# % is scaled to controls: 0 for no effect and ±100 for the full control effect; potency is read from the fitted curve at half-maximal effect; tags tell the direction and shape of the fitted curve.
# UniProt O94925, sequence (O94925 whole entry, looked up, canonical isoform): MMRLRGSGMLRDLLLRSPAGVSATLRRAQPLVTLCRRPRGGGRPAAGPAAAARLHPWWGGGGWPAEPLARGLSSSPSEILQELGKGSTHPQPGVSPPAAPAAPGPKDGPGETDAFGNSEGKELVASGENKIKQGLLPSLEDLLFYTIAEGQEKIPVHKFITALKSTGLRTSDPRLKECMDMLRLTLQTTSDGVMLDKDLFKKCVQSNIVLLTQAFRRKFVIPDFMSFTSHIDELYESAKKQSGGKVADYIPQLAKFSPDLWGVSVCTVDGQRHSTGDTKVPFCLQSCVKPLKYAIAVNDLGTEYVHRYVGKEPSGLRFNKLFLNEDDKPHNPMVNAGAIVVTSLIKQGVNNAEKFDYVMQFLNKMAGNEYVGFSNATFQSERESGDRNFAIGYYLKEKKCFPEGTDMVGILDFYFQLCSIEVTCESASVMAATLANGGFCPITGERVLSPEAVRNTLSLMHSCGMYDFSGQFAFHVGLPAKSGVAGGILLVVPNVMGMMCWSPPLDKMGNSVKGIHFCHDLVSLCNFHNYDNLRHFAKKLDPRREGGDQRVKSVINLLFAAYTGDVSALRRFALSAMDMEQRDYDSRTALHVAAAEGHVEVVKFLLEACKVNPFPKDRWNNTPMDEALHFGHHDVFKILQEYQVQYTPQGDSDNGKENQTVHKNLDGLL
SMILES,"activity change, negative = inhibition",Potency
CC(C)(C)OC(=O)NCc1ccc(CNC(=O)c2[nH]cnc2C(=O)N[C@@H](Cc2ccccc2)C(=O)OC(C)(C)C)cc1,inactive: -3.85%,–
COc1ccccc1C(=O)NNC(=O)c1cccc(C)c1,–,"inconclusive [inhibitor, single point]"
COc1ccc(-c2coc3cc4oc(=O)cc(C)c4cc23)cc1F,–,"inconclusive [inhibitor, partial curve, poor fit]"
Cn1nc(C2CC2)cc1NC(=O)C1(C)CCN1C(=O)Cc1ccc(-c2ccccc2)cc1 (stereo not given),inactive: -0.0677%,–
O=C(OCC(=O)N1CCN(C(=O)c2ccco2)CC1)c1cc(-c2ccc(Cl)c(Cl)c2Cl)nc2ccccc12,–,"inconclusive [inhibitor, single point]"
CC(C)(C)c1ccc(S(=O)(=O)NNC(=O)c2cc3ccccc3[nH]2)cc1,–,"inconclusive [inhibitor, single point]"
Cc1ccc(-n2nc3c(=O)n(CC(=O)NCCCc4ccccc4)nc(C)c3c2C)cc1,inactive: -0.923%,–
Cc1ccc(C)c(S(=O)(=O)c2nnn3c2nc(NC2CCCCC2)c2sccc23)c1,–,"inconclusive [inhibitor, single point]"
CCCCn1nnnc1SCC(=O)NC1CCCCC1,–,"inconclusive [inhibitor, single point]"
Cc1nnc(N=c2ssnc2Cl)o1,–,"inconclusive [inhibitor, single point]"
O=c1cc(O)c2sc(Nc3ccc(Cl)c(F)c3)nc2[nH]1,–,"inconclusive [inhibitor, single point]"
Cc1cc(Cl)c2ccccc2n1,inactive: 3.97%,–
NNC(=O)c1oc2ccccc2c1-n1cccc1,–,"inconclusive [inhibitor, single point]"
COc1ccc(CNc2ncnc3onc(-c4ccc(F)cc4)c23)cc1,inactive: 4.47%,–
CN1CCCC2(CCCN(Cc3nc(Cc4cccc(C(F)(F)F)c4)no3)C2)C1 (stereo not given),inactive: -15.9%,–
O=c1[nH]c(Nc2ccccc2Cl)cc2ccccc12,inactive: 12.8%,–
COc1ccc(OC)c2cc3ccccc3cc12,–,"inconclusive [inhibitor, single point]"
CN1CCc2c(sc3c2C(=O)NC(c2cn(Cc4ccccc4)c4ccccc24)N3)C1 (stereo not given),–,"inconclusive [inhibitor, single point]"
Cc1ccc(-c2nnc(Nc3ccc(CC(N)=O)cc3)c3ccccc23)cc1S(=O)(=O)NCC1CCCO1 (stereo not given),–,"inconclusive [inhibitor, single point]"
COc1ccc(NC(=O)N(C)C[C@H]2Oc3ccc(NC(=O)c4ccncc4)cc3C(=O)N([C@H](C)CO)C[C@@H]2C)cc1,–,"inconclusive [inhibitor, single point]"
